# PubChem BioAssay AID894 (National Center for Advancing Translational Sciences (NCATS), 2007)
# Several values for one entry are separate records, joined by “and”; a condition that tells them apart may be missing. Equal values may be shown once. In all, about 150,000 compounds went through this assay and about 6,500 (4.3%) were called active. The shares of active, inactive and inconclusive entries below differ from those in the screen. The call rests on the fitted dose curve; in most records, active means well fitted inhibition curve with a large enough effect (not every such curve was filed as active); inconclusive means small, poorly fitted or top-dose-only effect, or another doubt; inactive means no such curve, though single readings can be large or run the other way. Potencies of inconclusive entries are doubtful fits and often do not repeat.
# Biological target: 15-hydroxyprostaglandin dehydrogenase [NAD(+)] (Homo sapiens) (UniProt P15428)
# Sequence of UniProt P15428 (P15428 whole entry, looked up): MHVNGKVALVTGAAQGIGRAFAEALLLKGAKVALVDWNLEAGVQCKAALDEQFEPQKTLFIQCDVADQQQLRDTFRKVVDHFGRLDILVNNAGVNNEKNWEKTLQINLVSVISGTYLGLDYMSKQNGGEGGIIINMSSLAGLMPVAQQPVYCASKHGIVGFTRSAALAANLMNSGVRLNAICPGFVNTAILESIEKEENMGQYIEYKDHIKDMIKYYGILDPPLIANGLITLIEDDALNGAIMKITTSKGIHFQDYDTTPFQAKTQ
# Assay: qHTS Assay for Inhibitors of HPGD (15-Hydroxyprostaglandin Dehydrogenase)
# Details: purified HPGD, NADH fluorescence kinetic, PGE2 substrate; activity change, negative = inhibition: hits give low values
# How it was run: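 NADH formation kinetics: reaction with 30 uM PGE2 and 1 mM NAD+ (final), 20 nM enzyme, Tris-HCl pH 8 with Tween 20, after 15 min compound preincubation at room temperature. Fluorescence change, last versus first of five reads.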
# On the % scale 0 is the no-effect control and ±100 the full control effect; potency means the concentration at half of the fitted maximal effect; tags describe the fitted curve by direction and shape.
SMILES,"activity change, negative = inhibition",Potency
Cc1ccc(S(=O)(=O)NCCCCCC(=O)Nc2ccccc2)cc1,inactive: -2.27%,–
CCOC(=O)CNS(=O)(=O)c1ccc(C(=O)O)cc1,inactive: -6.86%,–
COc1ccc(N(CC(=O)NCc2ccco2)S(=O)(=O)c2ccc(OC)c(OC)c2)cc1,inactive: -3.42%,–
O=C(NNC(=O)c1cnccn1)c1cccc([N+](=O)[O-])c1,inactive: -24.8%,–
CCCc1nc(N)c(C#N)c(-c2ccco2)c1CC,–,"inconclusive: 25.1 µM [inhibitor, partial curve]"
CCN(CC)C(=O)c1n[nH]c(=O)c2ccccc12,inactive: -2.76%,–
O=C(CN1C(=O)c2cccc3cccc1c23)Nc1cccnc1,–,"inconclusive: 28.2 µM [inhibitor, partial curve]"
CCc1ccc2nc3nc(C)cc(C)c3c(N)c2c1,–,"inconclusive: 31.6 µM [inhibitor, partial curve]"
Cc1ccc(S(=O)(=O)c2c(N)n(-c3ccccc3)c3nc4ccccc4nc23)cc1,–,"inconclusive: 31.6 µM [inhibitor, partial curve]"
Cc1cccc(NS(=O)(=O)c2cccs2)c1,–,active: 28.2 µM
O=S(=O)(Cc1ccccc1)c1ccccc1-c1nnc(-c2ccccc2)o1,–,"inconclusive: 20 µM [inhibitor, partial curve]"
COc1ccc(Cl)cc1NC(=O)c1cnc2sccn2c1=O,–,"inconclusive: 25.1 µM [inhibitor, partial curve]"
O=C(c1cc2nc(-c3ccc(F)cc3)cc(C(F)(F)F)n2n1)N1CCCC1,–,active: 3.55 µM
CC(C)Cc1nc(N2CCCCC2)c(C#N)c2c1CCC2,–,"inconclusive: 28.2 µM [inhibitor, partial curve]"
N#Cc1nc(-c2cccs2)oc1NCc1ccccc1,–,"inconclusive: 25.1 µM [inhibitor, partial curve]"
CC(C)(C)OC(=O)N1CCC(C(=O)N2CCCCCC2)CC1,–,active: 14.1 µM
CCOC(=O)c1cc2c(C(F)(F)F)cc(-c3ccccc3)nc2o1,–,"inconclusive: 8.91 µM [inhibitor, partial curve]"
O=C(c1ccc(Cl)cc1)C1C2C(=O)N(c3ccccc3)C(=O)C2C2CCCN21 (configuration not stated),inactive: -18.9%,–
Cc1cccc(CNc2ncncc2-c2cccc(C#N)c2)c1,inactive: -23.5%,–
Cc1ccccc1OCc1nc(-c2ccc(NC(=O)c3ccc4c(c3)OCO4)cc2)no1,–,"inconclusive: 22.4 µM [inhibitor, partial curve]"
COc1ccccc1OCCCOc1ccc([N+](=O)[O-])cc1Cl,–,active: 15.8 µM
O=C(Nc1ncnc2sc3c(c12)CCCCC3)c1ccco1,–,"inconclusive: 39.8 µM [inhibitor, single point]"
c1ccc2c(CSCCc3ccncc3)cccc2c1,–,"inconclusive: 20 µM [inhibitor, partial curve]"
COC(=O)c1ccn(-c2nc(-c3ccco3)cc(C(F)(F)F)n2)n1,–,"inconclusive: 25.1 µM [inhibitor, partial curve]"

SMILES,"activity change, negative = inhibition",Potency
CCN(CCCNC(=O)CCc1nc(-c2ccc(OC)cc2)no1)c1cccc(C)c1,–,"inconclusive: 22.4 µM [inhibitor, partial curve]"
Cn1c(C(=O)NCc2ccco2)cc2c(=O)[nH]c3ccccc3c21,–,"inconclusive: 31.6 µM [inhibitor, partial curve]"
COC(C(=O)NCc1ccccc1C)c1ccccc1 (configuration not stated),inactive: -8.94%,–
Cc1ccc(N=C2NC(=O)CS2)c(C)c1,inactive: -18.3%,–
S=c1[nH]nc(-c2ccccc2)o1,–,"inconclusive: 15.8 µM [inhibitor, partial curve]"
Cc1cc(C)nc(NS(=O)(=O)c2ccc(NC(=O)CN3C(=O)S/C(=C\c4ccccc4)C3=O)cc2)n1,–,"inconclusive: 28.2 µM [inhibitor, partial curve]"
CCC(=O)N1N=C(c2ccc(NS(C)(=O)=O)cc2)CC1c1ccc(C)cc1 (configuration not stated),–,"inconclusive: 14.1 µM [inhibitor, partial curve]"
N#Cc1c(-c2ccc(Cl)cc2Cl)nc2n(c1=O)CCS2,–,"inconclusive: 28.2 µM [inhibitor, single point]"
COc1ccc2nc(Nc3nc4ccc(NC(C)=O)cc4s3)sc2c1,–,"inconclusive: 31.6 µM [inhibitor, partial curve]"
Cc1ccc2c(c1)-c1cc(C)nn1C(c1ccc3c(c1)OCO3)N2 (configuration not stated),–,"inconclusive: 22.4 µM [inhibitor, single point]"
COc1ccccc1NC(=O)CN1CCN(CC(=O)Nc2ccc3c(c2)OCO3)CC1,inactive: -13.1%,–
O=C(Nc1cc(=O)[nH]c2ncnn12)c1ccccc1Cl,–,active: 22.4 µM
COc1c2ccoc2nc2c(OC)c(OCC(O)C(C)(C)O)ccc12 (configuration not stated),–,"inconclusive: 15.8 µM [inhibitor, partial curve] and inconclusive: 35.5 µM [inhibitor, partial curve] and inconclusive: 31.6 µM [inhibitor, partial curve]"
COc1ccc(C2C(C#N)=C(C)NC3=C2C(=O)c2ccccc23)cc1 (configuration not stated),inactive: -19.7%,–
Cc1ccc(N2C(=O)CC(Sc3nc(-c4ccccc4)c4cc(Cl)ccc4n3)C2=O)c(C)c1 (configuration not stated),–,"inconclusive: 25.1 µM [inhibitor, partial curve]"
COc1ccc(C2CC(=O)Oc3ccc(O)cc32)cc1 (configuration not stated),inactive: -11.9%,–
Cc1cc2cc(CNC(=O)c3ccc4c(c3)OCO4)ccc2n1C,–,"inconclusive: 22.4 µM [inhibitor, single point]"
CCC(Cc1ccccc1)NC(=O)CCn1cccc1 (configuration not stated),–,"inconclusive: 39.8 µM [inhibitor, single point]"
CCOC(=O)c1nnn(-c2nonc2N)c1CNC(C)C,inactive: -13.2%,–
Cc1nc(NC(=O)c2ccccc2[N+](=O)[O-])sc1C(=O)N(C)C,–,active: 22.4 µM
COc1ccc(Cl)cc1-c1ccc(C(=O)O)s1,–,"inconclusive: 35.5 µM [inhibitor, partial curve]"
CCn1c(C(=O)N2CCC(C(=O)N3CCN(c4ccccn4)CC3)CC2)cc2sccc21,–,"inconclusive: 31.6 µM [inhibitor, single point]"
CC(=C/c1ccc(C(C)C)cc1)/C=N/NC(=O)Cn1nc(C)cc1C,–,"inconclusive: 39.8 µM [inhibitor, single point]"
COc1ccc(Cn2nnnc2CN2CCc3ccccc32)cc1,inactive: -9%,–

SMILES,"activity change, negative = inhibition",Potency
COc1ccc(Cc2nn3c(-c4ccccc4OC)nnc3s2)cc1,–,active: 28.2 µM
Clc1cccc(Cl)c1/C=C/c1nc2ccccc2[nH]1,–,"inconclusive: 25.1 µM [inhibitor, partial curve]"
COc1ccc(CCNC(=O)c2sc(=S)n(C)c2N)cc1,inactive: -15.5%,–
CCOC(=O)c1sc2nc(C)c3c(c2c1N)CC(C)(C)OC3,–,"inconclusive: 31.6 µM [inhibitor, partial curve]"
CC(C)c1ccc(S(=O)(=O)c2n[nH]n3c2nc(=O)c2ccccc23)cc1,–,"inconclusive: 28.2 µM [inhibitor, partial curve]"
CCOC(=O)C1CCCN(C(=O)c2cc3nc(-c4cccc(OC)c4)cc(C(F)(F)F)n3n2)C1 (configuration not stated),–,active: 15.8 µM
CSc1ccccc1NC(=O)c1cc(-c2cccs2)on1,–,"inconclusive: 22.4 µM [inhibitor, partial curve]"
N#Cc1nc(-c2ccc(OCc3ccccc3)cc2)oc1N1CCOCC1,–,"inconclusive: 28.2 µM [inhibitor, partial curve]"
Cc1cc(N2CCCCCC2)nc2ccccc12,–,"inconclusive: 10 µM [inhibitor, partial curve]"
COC(=O)c1ccc(-c2sc3nc(N4CCOCC4)c4c(c3c2N)CCCC4)o1,–,"inconclusive: 20 µM [inhibitor, partial curve]"
O=C(COc1ccc2oc(-c3ccccc3)cc(=O)c2c1)NCc1ccco1,–,"inconclusive: 14.1 µM [inhibitor, partial curve]"
COCCCN=C1NN=C(c2cc(C)n(-c3ccccc3)c2C)CS1,inactive: -15.9%,–
CCn1c2ccccc2c2cc(NC(=O)CSc3nnc(C4CC4)n3Cc3ccco3)ccc21,–,"inconclusive: 31.6 µM [inhibitor, partial curve]"
CCN(CC)C(=O)c1sc(N)c(C(=O)OC(C)C)c1C,–,active: 20 µM
COc1ccc(CCNC(=O)COC(=O)/C=C/c2ccc(OCC#N)c(OC)c2)cc1,–,"inconclusive: 25.1 µM [inhibitor, partial curve]"
S=C(Nc1cccc(Br)c1)c1ccccc1,–,active: 12.6 µM
Cc1ccccc1NC(=O)CSC(N)=O,–,"inconclusive: 25.1 µM [inhibitor, partial curve]"
CN(C)CCNC(=O)c1cc2cc(Br)ccc2oc1=O,–,"inconclusive: 20 µM [inhibitor, partial curve]"
CCOC(=O)c1ccccc1NC(=O)/C=C/c1cc(OC)c(OC)c(OC)c1,–,"inconclusive: 14.1 µM [inhibitor, partial curve]"
COc1ccc(N=c2cc(-c3ccc(OC)cc3)oc3ccccc23)cc1,inactive: -15.6%,–
Cc1cc(C(=O)N(C)C)sc1-c1ccccc1,–,active: 6.31 µM
CCCCC/C=C\C/C=C\C/C=C\C/C=C\CCCCCC(=O)NC(C)C(=O)O (configuration not stated),inactive: -6.17%,–
COc1ccc(/C=C/c2cc(O)cc(O[C@H]3OC(CO)C(O)C(O)C3O)c2)cc1 (some centres not stated),inactive: -23.3%,–
CC(C)NC(=O)C1CCN(C(=O)c2cc3sccc3n2Cc2ccc(F)cc2)CC1,inactive: -0.0877%,–
